Reference: the supplement of paper PMC10338343
± gives the standard deviation. The entries are a selection whose mix differs from that of the whole data set.

What follows are sequences tested on MIWI (PIWIL1) piRISC loaded with piRNA #1 (30 nt) (assay: pre-steady-state target cleavage rate (min^-1); MIWI and MILI are mouse PIWI proteins and EfPiwi is from a freshwater sponge; tags in brackets are library labels; higher = faster piRNA-guided slicing of the target). Settings: guide: piRNA #1 5'p-UGAGGUAGUAGGUUGUAUAGUAUCCAGAGG; auxiliary factor: 500 nM mouse GTSF1.
Procedure, shortened: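 The pre-steady-state cleavage rate was calculated from a burst-and-steady-state fit. Data came from Cleave-'n-Seq, in which […] transcribed, DNA-blocked target RNA library was mixed with 1 nM active affinity-purified piRISC carrying one synthetic guide, with or without 500 nM GTSF1 partner protein, in HEPES–potassium acetate buffer at 33 °C for 0–8 or 0–960 min. Uncleaved targets were sequenced and normalised to depth and to weakly complementary targets, three trials were pooled, and k3 was capped at 0.0001 min^-1.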
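Note: 1 nM active piRISC with 0.1 nM target library at 33 °C single turnover.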

Sequence | pre-steady-state target cleavage rate
GGACUCGAUACUAUACAACCAACUACCUCA | 0.101 ± 0.01
GGAGACCUUUCUAUACAACCUACUACCUGA | 0.47 ± 0.045
GGAGACCUAUCUAUACAACCUACUACCUUA | 0.905 ± 0.069
GGACUGGUUACUAUACAACGUACUACCUCA | 0.864 ± 0.088
GCUCUGGAACUAUACAACCUACUACCUCA | 1.79 ± 0.11
GCUCUGGAUACUAUACAUACCUACUACCUCA | 0.00437 ± 0.0036
GCUCUGGAUACUAUACAACCUGCUACCUCA | 0.571 ± 0.033
GGAGUGGAUAGUAUACAACCUACUUCCUCA | 0.147 ± 0.032
GGAGACCUAUGUUUACAACCUACUACCUCA | 0.00469 ± 0.004
GGUCUGGAUACAAUACAACCUAGUACCUCA | 0.562 ± 0.054
GGAGACGAUACUAUUCAACCUACAACCUCA | 0.509 ± 0.048
GGAGAGGAUACAUAUACAACCUACUACCUCA | 1.05 ± 0.059
GGUCUGGAUAGUAUAGAACCUACUACCUCA | 0.88 ± 0.07
GCUCUGGAUACUAUUGAACCUACUACCUCA | 1.12 ± 0.088
GGAGACCUUACUAUACAACCUACUACUUCA | 1.58 ± 0.12
CCUCUCGAUAGUAUACAACCUACUACCUCA | 1.4 ± 0.078
CCUCUGGAUACUAUACAACCUACUACCAGA | 0.227 ± 0.077
GGAGACCUAUGAUAUGUUCCUAGUAGCUCA | < 0.0001
GGAGACCUAUCUAUACAAGCUACUACGUCA | 0.264 ± 0.019
GGAGACCUAUCUAUACAACCUACCUACCUCA | 0.297 ± 0.025

Sequence | pre-steady-state target cleavage rate
CCUCUGGAUACUAUAGAACCUAGUACCUCA | 0.0122 ± 0.0031
GGAGACCUUACUAUUCAACCUACUACCACA | 0.824 ± 0.085
GGAGAGGAGUACUAUACAACCUACUACCUCA | 0.209 ± 0.032
CCUCUGGAUACUAAUGAACCUACUACCUCA | 0.702 ± 0.086
GGAGACCUAACUAUACAUCCUACUACCUGA | 0.28 ± 0.047
CCUCUGGAUUCUAUACAACCUUCUACCUCA | 0.52 ± 0.027
GCUCUGGAUACUAUACAAGCUACAACCUCA | 0.995 ± 0.046
CCUCUGGAUACUAUAGAAGCUACUACCUCA | 0.584 ± 0.039
CCACUGCAUACUAUACAACCUACUACCUCA | 1.87 ± 0.11
CCUCUGGAUACUAUACAACCUCACUACCUCA | 0.0086 ± 0.0033
GCUCUGGAUACUAUACAACCUACUACCUGCA | 1.43 ± 0.11
GGAGAGGAUACUAUACAACCUACAAGCUCA | 0.0618 ± 0.018
GCUCUGGAUACUAUACAACCUACUACGAGA | 0.438 ± 0.086
GCUCUGGAUAGUAUACAUCCUACUACCUCA | 1.18 ± 0.065
CCUCUGGAUACUAUACAACCUAGUACCACA | 0.0224 ± 0.01
GGAGACGAUUCUAUACAACCUUCUACCUCA | 0.764 ± 0.04
CCUCUGCAUAGUAUACAACCUACUACCUCA | 0.91 ± 0.036
GGAGUGGAUACUUAUCAACCUACUACCUCA | 0.582 ± 0.096
GGAGACCUUACUAUACAACGUUCUACCUCA | 0.0313 ± 0.0078
GGAGACCUAUGUAUACAACCUACUACCUA | 0.0953 ± 0.013
